# Experimental data published in PubChem BioAssay AID686979 (National Center for Advancing Translational Sciences (NCATS), 2013).
# The whole screen tested about 420,000 compounds, of which about 50,000 (12%) were called active. About 26% were inconclusive and are not listed. Calls come from the whole dose curve; as a rule, active = well fitted inhibition curve with a large enough effect; inconclusive = small, poorly fitted or top-dose-only effect; inactive = flat fitted curve, though single readings scatter. The list shows a part of the results, in another mix than the full data. Some structures have more than one record in an assay (separate samples or runs), and their calls can disagree.
# Test: qHTS for Inhibitors of human tyrosyl-DNA phosphodiesterase 1 (TDP1): qHTS in cells in presence of CPT; note: nearly all actives have a fitted effect of over 55% in size
# Settings: chicken DT40 Tdp1-/-;hTDP1 cells + 20 nM CPT, ATP luminescence, 48 h; series mostly up to 46.2 µM; activity change, negative = growth inhibition: at the top concentration
# Method in brief: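 Cell growth measured by CellTiter-Glo luminescence after a minimum 48 h, 37 C compound exposure with 20 nM CPT in Tdp1-knockout DT40 cells stably expressing hTDP1, seeded 400/well; qHTS titration format.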
# % is set by controls: 0 for no effect and ±100 for the full control effect; potency is the fitted concentration of half-maximal effect.
Compound,Potency,"activity change, negative = growth inhibition"
Cc1ccc2nc(-c3c[nH]c4ccccc34)c(Nc3ccc(F)cc3)n2c1,active: 14.6 µM,–
C=CCOc1cccc(CNCCCN2CCOCC2)c1,–,inactive: 34.3%
CC(C)=CCN1CCN(Cc2coc3ccc(C)cc3c2=O)CC1CCO (stereo not given),–,inactive: 47.1%
COc1cc([N+](=O)[O-])ccc1N,–,inactive: 37.7%
CC(C)c1ccc(NC(=O)CCNS(=O)(=O)c2cccc3nsnc23)cc1,–,inactive: -29.7%
O=C(O)CCN1C(=O)C2C3CC(C2C1=O)C1C(c2ccccc2)c2sc(=O)[nH]c2SC31 (stereo not given),–,inactive: -0.579%
O=C(NC1CC1)C1=C[C@@H](c2ccccc2)C[C@@H](OCc2ccc(CO)cc2)O1,–,inactive: -0.796%
Clc1ncc(C#Cc2ccccc2)c2ncncc12,active: 1.41 µM,–
Cc1ccc(N2C(=O)C3NN=C(C(=O)OCc4ccccc4)C3C2=O)cc1 (stereo not given),–,inactive: 31.5%
O=C(COCc1cc(-c2ccc3c(c2)OCO3)on1)N1CCN(c2ccccc2)CC1,–,inactive: -22.8%
CC12CCC(CC1)C(C)(C)O2,inactive,–
CCOC(=O)C1=C(C)Nc2nc(SCC(=O)OC)nn2C1c1cc(F)cc(F)c1 (stereo not given),–,inactive: -14.7%
C(#Cc1ccccc1)CN1CCN(c2ccccn2)CC1,–,inactive: -1.66%
CCCCNC(=O)C1CCC(CNS(=O)(=O)c2ccc(NC(C)=O)cc2)CC1 (stereo not given),–,inactive: -9.74%
Cc1cc(C)c(NC(=O)CSc2nnc(CNC(=O)c3ccccc3F)o2)c(C)c1,–,inactive: 4.7%
COC(=O)[C@@H]1C[C@@]2(O)[C@H](O)[C@H](O)[C@H](O)C[C@H]2N1Cc1ccc(-c2ccccc2)cc1,–,inactive: -28.8%
Cn1nnc2ccccc2c1=O,–,inactive: 37.4%
CC#CCOC(=O)C1=CCCN(C)C1,–,inactive: 19.9%
COc1cccc(N2CCN(C(=O)c3ccc(CS(=O)c4ccc(Cl)cc4)o3)CC2)c1 (stereo not given),active: 0.731 µM,–
C[C@H](CO)N1C[C@H](C)[C@@H](CN(C)S(=O)(=O)c2ccc(Cl)cc2)OCc2cnnn2CCCC1=O,–,inactive: 5.59%
CCN(CC)C(=O)c1cccc(-c2csc(C(C)(O)c3ccc(OC)cc3)n2)c1 (stereo not given),active: 5.8 µM,–
CC(C)(C)c1ccc(/C=C(\c2nc3ccccc3[nH]2)S(=O)(=O)c2ccccc2)cc1,active: 23.1 µM,–
C[C@H](CO)N1C[C@H](C)[C@@H](CN(C)C(=O)Nc2ccc(N3CCN(C)CC3)cc2)OCc2cnnn2CCCC1=O,–,inactive: -12%
CCCc1cc(=O)n2[nH]c(NCc3c(F)cccc3Cl)nc2n1,–,inactive: -16.4%
COc1ccc(N2C(=S)NC3c4cc(Cl)ccc4OC2(C)C3C(=O)N(C)C)cc1 (stereo not given),active: 29.1 µM,–
c1ccc([C@H]2CN3CCSC3=N2)cc1,–,inactive: -2.43%
COc1ccc(NC(=O)c2ccco2)cc1NC(=O)C(C)(C)Oc1ccc(Cl)cc1,active: 18.4 µM,–
Cc1ccc(C(F)(F)F)cc1NC(N)=S,–,inactive: 2.78%

Compound,Potency,"activity change, negative = growth inhibition"
CC(=O)N1CCC[C@H]1C(=O)O,–,inactive: -16.7%
Cc1ccc(S(=O)(=O)N2CN(CC3CCCO3)c3nc4ccccc4nc32)cc1 (stereo not given),–,inactive: -15%
O=C(Nc1cccc(OC(F)(F)F)c1)C1Cc2c(-c3ccc4c(c3)OCO4)ccnc2O1 (stereo not given),active: 16.4 µM,–
COc1ccc(C2CNC(=O)C2)cc1OC1CCCC1 (stereo not given),inactive,–
C=C[C@]1(C)CC(=O)[C@@]2(O)[C@@]3(C)C(O)CCC(C)(C)C3C(O)C(OC(C)=O)[C@@]2(C)O1 (stereo not given in full),–,inactive: 7.89%
C/C(N)=C(/C#N)C(=O)CSc1nnc(COc2ccccc2Cl)o1,–,inactive: -25.3%
COC(C[C@H](O)[C@@H](C)[C@H](O)COCc1ccccc1)OC,–,inactive: -1.15%
O=[N+]([O-])c1cccc2cn[nH]c12,inactive,–
O=C(N/N=C(\c1ccccc1)c1ccccn1)c1cccc([N+](=O)[O-])c1,active: 1.16 µM,–
CCNC(=O)/N=C1/NC(=O)C(C(C)C)O1 (stereo not given),–,inactive: 30.7%
Cc1ccc(/C=N/Nc2ccnc3cc(Cl)ccc23)c(C)c1,active: 6.51 µM,–
O=C(COC(=O)c1cc(Br)ccc1O)NCC1CCCO1 (stereo not given),–,inactive: 34.8%
CN(C)c1nc(N(C)C)nc(N(C)C)n1,inactive,–
CCO[C@@H]1OC(C(=O)N2CCN(Cc3ccccc3)CC2)=C[C@H](C)[C@H]1CCCO,–,inactive: -7.9%
OC1C(O)C(O)C(O)C(O)C1O (stereo not given),inactive,–
CC12CCC(=O)C=C1CCC1C2CCC2(C)C1CCC2(O)C(=O)CO (stereo not given),–,inactive: -5.81%
CC(C)N1CCN(c2ccncc2S(=O)(=O)N2CCCCC2)CC1,–,inactive: 80.1%
CC1CCN(S(=O)(=O)c2ccc3c(c2)N(CC(=O)NCCCN2CCCC(C)C2)C(=O)CS3)CC1 (stereo not given),–,inactive: -12.2%
CCC1COCCS(=O)(=O)N1Cc1ccc(F)cc1 (stereo not given),–,inactive: 3.78%
CCN(CC)CCc1nc(-c2ccccc2)no1,–,inactive: 2.65% [at 21.1 µM]
CCCCc1nc(Cl)c(CO)n1Cc1ccc(-c2ccccc2-c2nn[nH]n2)cc1,–,inactive: 2.84%
O=S(=O)(c1ccccc1)c1nc(-c2ccc(F)cc2)oc1N1CCOCC1,–,inactive: -8.55%
CC[C@]12CCCN3CCc4c(n(c5ccccc45)[C@](O)(C(=O)OC)C1)[C@@H]32,–,inactive: -15.8%
CCCc1nc2c(s1)CCc1onc(-c3cccc([N+](=O)[O-])c3)c1-2,–,inactive: 32%
CC1(C)[C@@H](O)CC[C@]2(C)C3C(=O)C=C4C5C[C@@](C)(C(=O)O)CC[C@]5(C)CC[C@@]4(C)[C@]3(C)CC[C@@H]12 (stereo not given in full),–,inactive: 5.38%
CCN1CCN(Cc2ccc(NC(=O)c3cc(NC(=O)C4=NN(c5ccccc5)C(=O)C4)cc(OC)c3)cc2C(F)(F)F)CC1,–,inactive: -1.77%
COc1ccc(SCCN2CC[C@@H](C)CCC2=O)cc1,–,inactive: -26.4%
